# Source: ChEMBL document CHEMBL5291721, “A preclinical secondary pharmacology resource illuminates target-adverse drug reaction associations of marketed drugs” (Nat Commun, 2023)
# Legend:
# D(3) dopamine receptor = D(3) dopamine receptor (Homo sapiens, UniProt P35462)
# [1] = biological target: Synaptic vesicular amine transporter (Rattus norvegicus, UniProt Q01827); type: functional
# Bile salt export pump = Bile salt export pump (Homo sapiens, UniProt O95342); type: functional
# [2] = biological target: Equilibrative nucleoside transporter 1 (Homo sapiens, UniProt Q99808)
# [3] = biological target: Voltage-gated inwardly rectifying potassium channel KCNH2 (Homo sapiens, UniProt Q12809); type: functional
# [4] = biological target: cGMP-inhibited 3',5'-cyclic phosphodiesterase 3A (Homo sapiens, UniProt Q14432); type: functional
# [5] = biological target: 5-hydroxytryptamine receptor 2C (Homo sapiens, UniProt P28335)
# [6] = biological target: Sodium-dependent dopamine transporter (Homo sapiens, UniProt Q01959)
# [7] = biological target: 3',5'-cyclic-AMP phosphodiesterase 4D (Homo sapiens, UniProt Q08499); type: functional
# [8] = biological target: Sodium-dependent serotonin transporter (Homo sapiens, UniProt P31645)
# [9] = biological target: 5-hydroxytryptamine receptor 3A (Homo sapiens, UniProt P46098); type: functional
# [10] = biological target: T1, Alpha-1A adrenergic receptor (Homo sapiens, UniProt P35348); type: functional, cell-based
# T1 sequence (P35348 whole entry): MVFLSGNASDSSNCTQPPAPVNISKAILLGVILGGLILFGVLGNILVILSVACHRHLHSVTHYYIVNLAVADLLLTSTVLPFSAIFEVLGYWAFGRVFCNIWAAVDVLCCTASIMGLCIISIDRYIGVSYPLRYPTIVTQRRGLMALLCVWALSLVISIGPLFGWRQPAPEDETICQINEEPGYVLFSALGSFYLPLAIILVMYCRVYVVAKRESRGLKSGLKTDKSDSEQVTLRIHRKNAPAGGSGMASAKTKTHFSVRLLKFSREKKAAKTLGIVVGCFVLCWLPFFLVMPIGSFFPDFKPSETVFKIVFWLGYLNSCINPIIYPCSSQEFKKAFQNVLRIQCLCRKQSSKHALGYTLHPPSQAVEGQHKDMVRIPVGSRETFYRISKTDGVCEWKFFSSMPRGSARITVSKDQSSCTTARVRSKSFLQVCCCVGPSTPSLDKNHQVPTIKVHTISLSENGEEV
# [11] = biological target: T1, Alpha-1A adrenergic receptor; type: functional, cell-based; remark: listed apart in the source
# [12] = biological target: T1, Alpha-1A adrenergic receptor
# [13] = biological target: Sodium-dependent noradrenaline transporter (Homo sapiens, UniProt P23975)
# [14] = biological target: T2, Gamma-aminobutyric acid receptor subunit alpha-1 (Rattus norvegicus, UniProt P62813)
# [15] = biological target: Neuronal acetylcholine receptor subunit alpha-4 (Homo sapiens, UniProt P43681)
# D(1B) dopamine receptor = D(1B) dopamine receptor (Homo sapiens, UniProt P21918)
# D(1A) dopamine receptor [16] = biological target: T3, D(1A) dopamine receptor (Homo sapiens, UniProt P21728); type: functional, cell-based
# [17] = biological target: Muscarinic acetylcholine receptor M5 (Homo sapiens, UniProt P08912)
# [18] = biological target: 5-hydroxytryptamine receptor 7 (Homo sapiens, UniProt P34969)
# [19] = biological target: Rod cGMP-specific 3',5'-cyclic phosphodiesterase subunit alpha (Homo sapiens, UniProt P16499); type: functional
# [20] = biological target: T2, Gamma-aminobutyric acid receptor subunit alpha-1; type: functional
# [21] = biological target: Amine oxidase [flavin-containing] A (Homo sapiens, UniProt P21397); type: functional
# Substance-K receptor = Substance-K receptor (Homo sapiens, UniProt P21452)
# [22] = biological target: Muscarinic acetylcholine receptor M4 (Homo sapiens, UniProt P08173)
# [23] = biological target: Delta-type opioid receptor (Homo sapiens, UniProt P41143)
# D(1A) dopamine receptor [24] = biological target: T3, D(1A) dopamine receptor
# Histamine H3 receptor = Histamine H3 receptor (Homo sapiens, UniProt Q9Y5N1)
# Substance-P receptor = Substance-P receptor (Homo sapiens, UniProt P25103)
# [25] = biological target: Gamma-aminobutyric acid type B receptor subunit 1 (Homo sapiens, UniProt Q9UBS5)
# Mu-type opioid receptor = Mu-type opioid receptor (Homo sapiens, UniProt P35372)
# [26] = biological target: 5-hydroxytryptamine receptor 5A (Homo sapiens, UniProt P47898)
# [27] = biological target: Voltage-dependent N-type calcium channel subunit alpha-1B (Rattus norvegicus, UniProt Q02294); type: functional
# D(4) dopamine receptor = D(4) dopamine receptor (Homo sapiens, UniProt P21917)
# [28] = biological target: Voltage-dependent L-type calcium channel subunit alpha-1C (Rattus norvegicus, UniProt P22002); type: functional
# Vasopressin V1a receptor = Vasopressin V1a receptor (Homo sapiens, UniProt P37288)
# [29] = biological target: Glutamate receptor ionotropic, NMDA 1 (Rattus norvegicus, UniProt P35439)
# Note: assay procedure not described here.
# Sequence of D(3) dopamine receptor (P35462 whole entry): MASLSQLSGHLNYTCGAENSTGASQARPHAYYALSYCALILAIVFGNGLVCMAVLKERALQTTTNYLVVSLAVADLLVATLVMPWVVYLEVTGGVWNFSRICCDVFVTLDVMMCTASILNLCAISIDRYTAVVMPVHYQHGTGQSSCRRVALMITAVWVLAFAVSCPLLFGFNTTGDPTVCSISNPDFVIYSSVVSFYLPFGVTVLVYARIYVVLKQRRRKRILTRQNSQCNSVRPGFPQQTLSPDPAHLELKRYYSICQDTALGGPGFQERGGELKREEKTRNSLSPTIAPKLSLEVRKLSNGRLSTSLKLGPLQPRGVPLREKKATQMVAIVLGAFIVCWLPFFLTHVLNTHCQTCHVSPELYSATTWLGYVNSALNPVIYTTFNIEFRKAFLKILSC
# T2 sequence (P62813 whole entry): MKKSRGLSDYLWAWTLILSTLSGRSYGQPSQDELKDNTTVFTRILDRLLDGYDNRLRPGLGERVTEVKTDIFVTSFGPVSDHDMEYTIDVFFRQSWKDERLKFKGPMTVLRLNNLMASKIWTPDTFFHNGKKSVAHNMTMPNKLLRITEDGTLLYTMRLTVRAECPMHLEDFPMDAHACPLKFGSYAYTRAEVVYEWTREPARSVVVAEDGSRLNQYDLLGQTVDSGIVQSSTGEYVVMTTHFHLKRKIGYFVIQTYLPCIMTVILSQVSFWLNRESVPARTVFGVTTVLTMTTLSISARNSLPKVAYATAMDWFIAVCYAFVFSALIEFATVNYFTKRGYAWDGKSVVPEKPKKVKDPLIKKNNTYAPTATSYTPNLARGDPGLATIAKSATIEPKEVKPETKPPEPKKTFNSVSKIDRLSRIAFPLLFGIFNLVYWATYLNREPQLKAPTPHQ
# Sequence of 5-hydroxytryptamine receptor 3A (P46098 whole entry): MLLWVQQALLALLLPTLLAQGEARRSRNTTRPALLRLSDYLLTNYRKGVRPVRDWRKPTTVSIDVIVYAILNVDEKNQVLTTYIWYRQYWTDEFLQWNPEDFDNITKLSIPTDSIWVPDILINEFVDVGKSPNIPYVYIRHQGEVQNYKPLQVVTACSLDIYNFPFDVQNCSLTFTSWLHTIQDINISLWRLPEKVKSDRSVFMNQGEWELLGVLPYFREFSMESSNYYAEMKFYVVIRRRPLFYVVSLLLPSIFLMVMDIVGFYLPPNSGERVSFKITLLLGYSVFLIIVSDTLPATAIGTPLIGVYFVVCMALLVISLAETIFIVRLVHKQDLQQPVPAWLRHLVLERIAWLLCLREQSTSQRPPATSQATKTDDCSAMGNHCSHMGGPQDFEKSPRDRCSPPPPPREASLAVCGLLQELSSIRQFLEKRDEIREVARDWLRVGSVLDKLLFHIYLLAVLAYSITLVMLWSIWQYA
# T3 sequence (P21728 whole entry): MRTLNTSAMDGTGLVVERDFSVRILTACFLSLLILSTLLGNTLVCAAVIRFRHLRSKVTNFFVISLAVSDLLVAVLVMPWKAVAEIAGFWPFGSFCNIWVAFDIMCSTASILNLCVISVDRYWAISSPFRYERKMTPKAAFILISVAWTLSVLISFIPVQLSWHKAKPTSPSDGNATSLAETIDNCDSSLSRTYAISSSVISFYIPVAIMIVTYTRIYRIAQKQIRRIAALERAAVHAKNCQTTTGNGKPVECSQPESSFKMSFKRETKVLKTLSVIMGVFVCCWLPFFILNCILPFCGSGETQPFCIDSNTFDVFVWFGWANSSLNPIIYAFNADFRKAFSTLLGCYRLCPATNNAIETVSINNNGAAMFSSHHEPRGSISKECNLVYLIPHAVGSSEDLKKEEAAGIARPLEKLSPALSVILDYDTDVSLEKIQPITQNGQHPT
# Sequence of Synaptic vesicular amine transporter (Q01827 whole entry): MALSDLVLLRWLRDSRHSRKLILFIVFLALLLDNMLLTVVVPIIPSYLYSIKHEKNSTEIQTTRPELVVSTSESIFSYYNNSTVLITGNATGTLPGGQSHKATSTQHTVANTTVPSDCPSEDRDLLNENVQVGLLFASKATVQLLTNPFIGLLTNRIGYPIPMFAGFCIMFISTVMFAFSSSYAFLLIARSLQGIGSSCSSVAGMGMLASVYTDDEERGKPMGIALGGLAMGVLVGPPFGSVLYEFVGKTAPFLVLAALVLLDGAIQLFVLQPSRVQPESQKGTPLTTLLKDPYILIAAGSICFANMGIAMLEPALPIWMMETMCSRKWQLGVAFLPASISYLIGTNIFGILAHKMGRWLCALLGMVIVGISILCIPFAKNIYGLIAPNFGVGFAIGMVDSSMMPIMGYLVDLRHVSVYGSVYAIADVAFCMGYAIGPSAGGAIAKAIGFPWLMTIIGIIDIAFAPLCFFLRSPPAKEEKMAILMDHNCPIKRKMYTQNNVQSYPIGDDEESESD
# Sequence of Amine oxidase [flavin-containing] A (P21397 whole entry): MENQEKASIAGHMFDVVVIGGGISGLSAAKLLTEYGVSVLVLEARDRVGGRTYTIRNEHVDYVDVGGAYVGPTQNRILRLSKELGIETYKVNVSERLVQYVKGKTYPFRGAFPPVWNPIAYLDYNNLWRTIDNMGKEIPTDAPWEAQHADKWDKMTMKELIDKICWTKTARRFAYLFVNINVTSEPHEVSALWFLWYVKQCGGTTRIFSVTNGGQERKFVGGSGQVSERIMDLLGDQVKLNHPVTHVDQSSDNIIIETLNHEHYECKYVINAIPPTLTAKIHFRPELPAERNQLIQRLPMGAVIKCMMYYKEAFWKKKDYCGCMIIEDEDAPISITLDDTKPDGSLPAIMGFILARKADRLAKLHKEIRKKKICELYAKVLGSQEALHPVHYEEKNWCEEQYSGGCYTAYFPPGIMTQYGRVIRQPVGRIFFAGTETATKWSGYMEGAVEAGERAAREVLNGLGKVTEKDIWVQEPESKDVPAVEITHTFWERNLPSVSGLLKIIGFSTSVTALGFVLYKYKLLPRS
# Sequence of Voltage-dependent L-type calcium channel subunit alpha-1C (P22002 whole entry): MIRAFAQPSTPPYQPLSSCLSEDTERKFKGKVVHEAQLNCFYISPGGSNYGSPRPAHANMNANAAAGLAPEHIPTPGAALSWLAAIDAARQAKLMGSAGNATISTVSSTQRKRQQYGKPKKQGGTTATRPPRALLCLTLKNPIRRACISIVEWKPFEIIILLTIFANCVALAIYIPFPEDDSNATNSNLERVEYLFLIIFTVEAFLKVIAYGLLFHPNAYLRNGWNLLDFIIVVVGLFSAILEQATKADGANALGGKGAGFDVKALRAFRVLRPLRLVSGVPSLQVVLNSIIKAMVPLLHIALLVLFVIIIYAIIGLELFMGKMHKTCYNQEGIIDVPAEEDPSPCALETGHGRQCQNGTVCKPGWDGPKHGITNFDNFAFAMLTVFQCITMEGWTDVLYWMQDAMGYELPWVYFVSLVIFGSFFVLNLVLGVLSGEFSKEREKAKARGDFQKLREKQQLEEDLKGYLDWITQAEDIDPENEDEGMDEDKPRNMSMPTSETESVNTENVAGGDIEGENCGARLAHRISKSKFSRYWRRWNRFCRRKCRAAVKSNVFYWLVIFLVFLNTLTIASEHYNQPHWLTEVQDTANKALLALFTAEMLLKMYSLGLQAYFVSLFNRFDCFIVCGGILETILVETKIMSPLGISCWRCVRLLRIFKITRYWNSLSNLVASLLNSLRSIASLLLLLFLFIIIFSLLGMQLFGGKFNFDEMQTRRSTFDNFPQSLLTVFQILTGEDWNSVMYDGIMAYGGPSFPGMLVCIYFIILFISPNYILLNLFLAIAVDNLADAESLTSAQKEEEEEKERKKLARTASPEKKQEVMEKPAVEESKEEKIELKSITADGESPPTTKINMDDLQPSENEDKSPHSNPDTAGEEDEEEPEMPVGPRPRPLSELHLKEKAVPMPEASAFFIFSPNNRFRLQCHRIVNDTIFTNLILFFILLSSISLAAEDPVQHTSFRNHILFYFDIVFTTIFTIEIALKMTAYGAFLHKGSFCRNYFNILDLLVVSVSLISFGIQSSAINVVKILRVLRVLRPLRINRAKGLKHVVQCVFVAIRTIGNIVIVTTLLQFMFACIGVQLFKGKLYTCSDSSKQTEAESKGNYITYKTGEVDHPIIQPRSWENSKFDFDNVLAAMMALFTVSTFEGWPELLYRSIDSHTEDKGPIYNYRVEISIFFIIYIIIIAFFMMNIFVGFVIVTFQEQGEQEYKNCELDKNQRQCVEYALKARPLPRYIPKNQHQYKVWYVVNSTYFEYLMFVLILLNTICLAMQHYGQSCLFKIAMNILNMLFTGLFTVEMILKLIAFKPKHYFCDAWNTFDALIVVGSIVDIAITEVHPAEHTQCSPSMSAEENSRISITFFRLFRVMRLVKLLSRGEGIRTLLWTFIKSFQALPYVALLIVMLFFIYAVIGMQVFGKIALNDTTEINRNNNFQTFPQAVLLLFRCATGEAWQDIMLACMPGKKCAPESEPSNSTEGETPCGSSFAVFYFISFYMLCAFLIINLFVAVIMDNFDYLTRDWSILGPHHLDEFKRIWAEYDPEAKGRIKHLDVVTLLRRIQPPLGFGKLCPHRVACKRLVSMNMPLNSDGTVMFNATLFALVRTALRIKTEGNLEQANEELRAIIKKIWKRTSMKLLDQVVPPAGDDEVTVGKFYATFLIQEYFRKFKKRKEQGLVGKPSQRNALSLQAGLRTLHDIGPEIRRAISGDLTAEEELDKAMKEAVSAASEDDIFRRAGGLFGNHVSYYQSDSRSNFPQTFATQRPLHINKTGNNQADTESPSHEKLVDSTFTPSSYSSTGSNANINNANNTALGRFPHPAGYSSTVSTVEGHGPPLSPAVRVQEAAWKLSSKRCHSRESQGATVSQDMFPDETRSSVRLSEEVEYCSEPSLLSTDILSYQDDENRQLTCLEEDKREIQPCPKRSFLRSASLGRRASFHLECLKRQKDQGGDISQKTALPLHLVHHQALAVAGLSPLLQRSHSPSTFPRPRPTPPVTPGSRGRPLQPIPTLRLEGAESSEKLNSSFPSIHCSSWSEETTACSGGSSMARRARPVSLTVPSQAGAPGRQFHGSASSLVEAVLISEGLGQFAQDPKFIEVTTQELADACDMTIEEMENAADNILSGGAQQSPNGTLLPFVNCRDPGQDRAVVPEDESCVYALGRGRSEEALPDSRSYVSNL
smiles,measurement,setting,value
O=c1[nH]c2ccccc2n1CCCN1CCC(n2c(=O)[nH]c3cc(Cl)ccc32)CC1 [DOMPERIDONE],AC50,D(3) dopamine receptor,0.024 µM
Cc1nc2n(c(=O)c1CCN1CCC(c3noc4cc(F)ccc34)CC1)CCCC2 [RISPERIDONE],AC50,[1],0.318 µM
same,AC50,Bile salt export pump,140 µM
CCOC(=O)C1(c2ccccc2)CCN(C)CC1 [MEPERIDINE],AC50,D(3) dopamine receptor,> 30 µM
same,AC50,[2],> 30 µM
same,AC50,[3],28.7 µM
same,AC50,[4],> 30 µM
same,AC50,[5],> 30 µM
same,AC50,[6],> 30 µM
same,AC50,[7],> 30 µM
same,AC50,[8],1.9 µM
same,AC50,[9],> 30 µM
same,AC50,[10],7.8 µM
same,AC50,[11],> 30 µM
same,AC50,[12],2.56 µM
same,AC50,[13],> 30 µM
CNCCC(Oc1ccc(C(F)(F)F)cc1)c1ccccc1 (stereo unspecified) [FLUOXETINE],AC50,D(3) dopamine receptor,> 10 µM
same,AC50,[14],> 10 µM
same,AC50,[15],> 10 µM
same,AC50,D(1B) dopamine receptor,> 10 µM
same,AC50,D(1A) dopamine receptor [16],2.3 µM
same,AC50,[17],5.25 µM
same,AC50,[18],> 10 µM
same,AC50,[19],> 10 µM
same,AC50,[20],> 10 µM
same,AC50,[21],> 10 µM
same,AC50,Substance-K receptor,> 10 µM
same,AC50,[22],> 10 µM
same,AC50,[23],> 10 µM
same,AC50,D(1A) dopamine receptor [24],8.58 µM
same,AC50,[9],> 10 µM
same,AC50,Histamine H3 receptor,> 10 µM
same,AC50,Substance-P receptor,> 10 µM
same,AC50,[25],> 10 µM
same,AC50,Mu-type opioid receptor,14 µM
same,AC50,[26],> 10 µM
same,AC50,[27],> 10 µM
same,AC50,D(4) dopamine receptor,> 10 µM
same,AC50,[28],4.67 µM
same,AC50,Vasopressin V1a receptor,> 10 µM
same,AC50,[29],> 10 µM
